In PubChem BioAssay AID485281 (National Center for Advancing Translational Sciences (NCATS), 2010):
Several values for one entry are separate records, joined by “and”; a condition that tells them apart may be missing. Identical values can stand only once. In all, about 350,000 compounds went through this assay and about 260 (0.074%) were called active. This list was built around the results that the source calls inconclusive (neither active nor inactive); the mix of calls is not that of the screen. Calls come from the whole dose curve; as a rule, active = well fitted inhibition curve with a large enough effect; inconclusive = small, poorly fitted or top-dose-only effect; inactive = no such curve, though single readings can be large or run the other way. Potencies of inconclusive entries are doubtful fits and often do not repeat.
% is set by controls: 0 for no effect and ±100 for the full control effect; potency is the fitted concentration of half-maximal effect; tags give direction and shape of the fitted curve.
Note: nearly all actives have a fitted effect of over 20% in size.

Each compound was assayed against Ferritin light chain (Equus caballus) (UniProt P02791) (assay: qHTS Assay for Identification of Novel General Anesthetics). Conditions: apoferritin/1-aminoanthracene competitive binding, fluorescence; activity change, negative = displacement: at 77.5 µM (top of the series).
UniProt P02791, sequence (P02791 whole entry, looked up): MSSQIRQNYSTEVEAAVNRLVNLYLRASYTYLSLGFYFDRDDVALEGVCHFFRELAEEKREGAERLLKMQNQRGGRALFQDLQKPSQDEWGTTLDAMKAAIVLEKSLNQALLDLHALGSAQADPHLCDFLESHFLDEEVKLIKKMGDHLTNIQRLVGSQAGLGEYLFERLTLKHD
Outline: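 Horse-spleen apoferritin (10 uM) was mixed with 50% saturated 1-aminoanthracene in PBS, exposed to compounds for 10 min at room temperature, and read for fluorescence (ex 380 nm, em 535 nm). Competitive displacement was fitted with a four-parameter Hill equation.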
With O=C1c2ccccc2C(O)(Cc2ccccc2)N1C1CCCCC1 (configuration not stated) the Potency was inconclusive: 12.6 µM [inhibitor, partial curve]. CCOc1cccc(/C=N/N2C(C)CCCC2C)c1O (configuration not stated) was tested, and the Potency was inconclusive: 50.1 µM [inhibitor, single point]. For COc1ccc(C(=O)NC23CC4CC(CC(C4)C2)C3)cc1, the Potency was “inactive”. In the case of COc1cccc(N2CCN(C(=O)CNC(=O)c3sc4ccccc4c3Cl)CC2)c1, the Potency is reported as inconclusive: 31.6 µM [inhibitor, partial curve]. In the case of CCC1(C)Cc2c(C#N)c(N)sc(=S)c2CO1 (configuration not stated), the Potency is reported as inconclusive: 50.1 µM [inhibitor, single point]. In the case of CCC1Sc2ccc(S(=O)(=O)Nc3ccc(OC)cc3)cc2NC1=O (configuration not stated), the Potency is reported as “inactive”. For COC(=O)c1ccc(-c2ccco2)n1Cc1ccccc1Cl, the Potency was “inactive”. With COC(=O)c1c(NC(=O)/C=C/c2ccc3c(c2)OCO3)sc(C)c1C the Potency was “inactive”. With CCOc1ccc(CN(C(=O)c2oc3ccccc3c2C)C2CCS(=O)(=O)C2)cc1 (configuration not stated) the Potency was “inactive”. In the case of Cc1ccc2nc(-c3ccc(NC(=O)COC(=O)c4ccc(Br)o4)cc3)sc2c1, the Potency is reported as “inactive”. For Cc1ccc(C)c2c3c([nH]c12)-c1nonc1CC3, the Potency was inconclusive: 25.1 µM [inhibitor, partial curve]. In the case of Cc1[nH]c2ccccc2c1/C=N/NC(=O)CNC(=O)c1ccc2c(c1)OCCO2, the Potency is reported as inconclusive: 17.8 µM [inhibitor, partial curve]. With O=C1C[C@@H](O)[C@@H](O)[C@H]2[C@@H]3C(=O)N(Cc4ccccc4)C(=O)[C@@H]3CC[C@H]12 the activity change, negative = displacement was inactive: 2.19% [at 15.3 µM] and inactive: -1.58% [at 15.3 µM]. For Cc1ccc(CN(C(=O)c2cc(=O)c3cc(C)cc(C)c3o2)C2CCS(=O)(=O)C2)cc1 (configuration not stated), the Potency was inconclusive: 22.4 µM [inhibitor, partial curve]. For C/C(=N/NC(=O)c1ccc(Br)s1)c1ccncc1, the Potency was inconclusive: 22.4 µM [inhibitor, single point]. In the case of Cc1cc(C(=O)N2CCCC(C(=O)c3ccc(Cl)cc3C)C2)no1 (configuration not stated), the Potency is reported as inconclusive: 50.1 µM [inhibitor, single point]. In the case of CCCOc1ccc(-c2c(C(=O)N/N=C/C3CCCCC3)nnn2-c2nonc2N)cc1, the Potency is reported as inconclusive: 15.8 µM [inhibitor, partial curve]. With COc1cccc(N2CC(O)Cn3c2nc2c3c(=O)n(CCCc3ccccc3)c(=O)n2C)c1 (configuration not stated) the Potency was inconclusive: 56.2 µM [inhibitor, single point]. In the case of c1cc(-c2cnn3cc(-c4ccc(OCCN5CCCCC5)cc4)cnc23)ccn1, the Potency is reported as “inactive”. Cc1ccc(C2=NC(c3ccc(F)cc3)=Nc3ccc(C)cc3N2)cc1 was tested, and the Potency was “inactive”. With CCOc1ccccc1-c1nn2c(Cc3ccccc3)nnc2s1 the Potency was inconclusive: 2.51 µM [inhibitor, partial curve]. With Cc1n[nH]c(=S)n1/N=C/c1ccccc1OCc1ccc(Cl)cc1 the Potency was inconclusive: 35.5 µM [inhibitor, partial curve]. With CN(CC1CCOCC1)C(=O)c1ccc2nc(Cc3cccc(Cl)c3)oc2c1 the Potency was inconclusive: 31.6 µM [inhibitor, partial curve]. With CCN(C(=O)c1sc2cc(OC)ccc2c1Cl)c1ccccc1 the Potency was inconclusive: 11.2 µM [inhibitor, partial curve]. CCC1=NN(C(=O)c2cccc(Br)c2)C(O)(c2ccc(Br)cc2)C1 (configuration not stated) was tested, and the Potency was inconclusive: 28.2 µM [inhibitor, single point]. For O=C(COc1ccccc1Cl)N(Cc1ccco1)Cc1ccco1, the Potency was inconclusive: 35.5 µM [inhibitor, partial curve]. CC(C)CCNC(=O)Nc1ccc2c(c1)N(C)C(=O)CS2 was tested, and the Potency was inconclusive: 35.5 µM [inhibitor, partial curve]. For CCCN(CCC)S(=O)(=O)c1ccc(C(=O)NCc2n[nH]c(=S)n2-c2ccc(Cl)c(Cl)c2)cc1, the Potency was inconclusive: 28.2 µM [inhibitor, partial curve]. In the case of Cc1cccc(N(C(=O)CNC(=O)c2ccco2)C(C(=O)NC2CCCCC2)c2cccnc2)c1 (configuration not stated), the Potency is reported as “inactive”. With CC(Oc1ccc(Cl)cc1Cl)C(=O)NC1=NN(c2ccccc2)C(=O)C1 (configuration not stated) the Potency was inconclusive: 28.2 µM [inhibitor, partial curve]. For C/C(=N\O)C(C)(C)Nc1ccccc1F, the Potency was inconclusive: 11.2 µM [inhibitor, partial curve, poor fit]. For CCN1C(=O)CSC1=Nc1ccc(Cl)c(Cl)c1, the Potency was inconclusive: 28.2 µM [inhibitor, partial curve]. With COc1ccc(N2C(=O)C(Cl)=C(N3CCCC(C)C3)C2=O)cc1 (configuration not stated) the Potency was inconclusive: 20 µM [inhibitor, partial curve]. In the case of COC(=O)c1c(NC(=O)CCc2ccc(C)o2)sc(C)c1C, the Potency is reported as “inactive”. For CCN(CC)S(=O)(=O)c1cc(NC(=O)COC(=O)CCC(=O)c2ccc(F)cc2)ccc1C, the Potency was inconclusive: 15.8 µM [inhibitor, partial curve]. CC(C)N(Cc1ccccc1)C(=O)CCc1ccccc1 was tested, and the Potency was inconclusive: 31.6 µM [inhibitor, partial curve]. With O=C1/C(=C/c2cccs2)CCc2ccccc21 the Potency was inconclusive: 39.8 µM [inhibitor, partial curve]. For Cc1ccc2ncc(S(=O)(=O)c3ccccc3)c(N3CCCCC3C)c2c1 (configuration not stated), the Potency was inconclusive: 3.16 µM [inhibitor, full curve, poor fit]. Nc1nc(CCl)nc(Nc2ccccc2)n1 was tested, and the Potency was “inactive”. In the case of COc1ccc(-c2cn[nH]c2-c2ccc(OCc3ccc([N+](=O)[O-])cc3)cc2O)cc1, the Potency is reported as inconclusive: 7.94 µM [inhibitor, partial curve]. O=C(CCCc1c[nH]c2ccccc12)N1CCCCCC1 was tested, and the Potency was inconclusive: 39.8 µM [inhibitor, partial curve]. CCCCCC(=O)NC(=S)Nc1ccccc1C(=O)OC was tested, and the Potency was inconclusive: 31.6 µM [inhibitor, partial curve]. With CCOC(=O)C1CCCN(C(=O)c2sc3nc(-c4ccc(F)cc4)cn3c2C)C1 (configuration not stated) the Potency was inconclusive: 25.1 µM [inhibitor, partial curve]. For CCN1/C(=C\C(=S)Nc2ccccc2)Sc2ccccc21, the Potency was inconclusive: 39.8 µM [inhibitor, single point]. In the case of COc1ccc(NS(=O)(=O)c2ccc3c(c2)Cc2ccccc2-3)cn1, the Potency is reported as inconclusive: 10 µM [inhibitor, partial curve]. With CC(=O)c1cccc(NC(=O)c2sc(-n3nc(C)c(CCC(C)C)c3C)nc2C)c1 the Potency was “inactive”. COCc1ccc(CN2CCCC(C(=O)Nc3ccccc3-c3ccc(OC)cc3)C2)o1 (configuration not stated) was tested, and the Potency was “inactive”. For O=C(COC(=O)CNC(=O)c1cccc([N+](=O)[O-])c1)Nc1nc2ccccc2s1, the Potency was inconclusive: 22.4 µM [inhibitor, partial curve]. In the case of Cc1noc(C)c1CSCC(=O)N1CCN(c2ccc([N+](=O)[O-])cc2)CC1, the Potency is reported as inconclusive: 20 µM [inhibitor, partial curve]. For O=C(NC1CCCCC1)c1nn2c(C(F)(F)F)cc(-c3ccco3)nc2c1Br, the Potency was inconclusive: 3.98 µM [inhibitor, full curve]. In the case of C1=CC2c3ccccc3NC(c3ccncc3)C2C1 (configuration not stated), the Potency is reported as inconclusive: 31.6 µM [inhibitor, partial curve]. CN1CCN(S(=O)(=O)c2ccc(NC(=S)NC(=O)C3CCCCC3)cc2)CC1 was tested, and the Potency was inconclusive: 10 µM [inhibitor, full curve]. With Cc1c(NC(=O)CSc2ccc(Cl)cc2)cccc1-c1nc2ncccc2o1 the Potency was inconclusive: 25.1 µM [inhibitor, partial curve]. Cc1ccc(Cl)cc1NC(=O)COC(=O)C1CCCCC1 was tested, and the Potency was inconclusive: 20 µM [inhibitor, partial curve]. With CSc1ccc(CNC(=O)Cc2csc3ccccc23)cc1 the Potency was “inactive”. In the case of COc1ccc(N2CCN(C(=O)c3ccc(C(C)(C)C)cc3)CC2)cc1, the Potency is reported as inconclusive: 35.5 µM [inhibitor, single point]. O=C(NNC(=O)c1ccc(Cn2cccn2)o1)NC12CC3CC(CC(C3)C1)C2 was tested, and the Potency was inconclusive: 14.1 µM [inhibitor, partial curve]. Cn1c(=O)c(=O)n(C)c2cc(N3CCCCC3)c(NS(=O)(=O)c3ccc(Br)cc3)cc21 was tested, and the Potency was inconclusive: 22.4 µM [inhibitor, partial curve]. With COc1ccc(NC(=O)COC(=O)COc2ccc(Br)cc2)cc1 the Potency was inconclusive: 15.8 µM [inhibitor, partial curve]. In the case of O=S(=O)(NCc1ccccc1)c1cccc2nonc12, the Potency is reported as inconclusive: 25.1 µM [inhibitor, partial curve]. With Cc1cc(C)cc(NS(=O)(=O)c2ccc(NC(=S)NC(=O)c3ccc(Br)o3)cc2)c1 the Potency was inconclusive: 20 µM [inhibitor, partial curve]. Cc1cccc(N(C(=O)Nc2ccccc2)C2=NCC(C)S2)c1 (configuration not stated) was tested, and the Potency was inconclusive: 20 µM [inhibitor, partial curve]. Cc1ccccc1NS(=O)(=O)c1cc(C(=O)NCCC2=CCCCC2)ccc1Cl was tested, and the Potency was inconclusive: 8.91 µM [inhibitor, partial curve]. With Cc1cc(N2C(=O)C(O)=C(C(=O)c3ccco3)C2c2ccc([N+](=O)[O-])cc2)no1 (configuration not stated) the Potency was “inactive”. In the case of CN(C)c1ccc(NC(=O)c2ccc3nc[nH]c3c2)cc1, the Potency is reported as “inactive”. For Cc1ccnc(N/C=C(/NC(=O)c2ccccc2)C(=O)N/N=C\c2ccc(F)cc2)n1, the Potency was inconclusive: 14.1 µM [inhibitor, partial curve]. In the case of C#CCOCCOCCOCCNc1nc(N2CCN(C(=O)[C@H](C(C)C)n3cc(CCO)nn3)CC2)nc(N2CCN(C(=O)[C@H](CCCCN)n3cc(CCCC)nn3)CC2)n1, the Potency is reported as inconclusive: 31.6 µM [inhibitor, single point].
